In PMC12846677 (Viruses, 2025):

Tested on: NL4-3IN-R263K
Assay type: cell-based
Settings: p24

## C[C@H]1N2C(=O)c3c(O)c(=O)c(C(=O)NCc4ccc(F)cc4F)cn3C[C@@H]2OCC12CC2 [ACC017]
  FC (Fold Change) EC50 (NL4-3IN-R263K)/EC50 (NL4-3): 16.52
